Test results reported in paper PMC3669356.
Results are given in words; binding and its absence hold for the method and conditions named. Some results given as binding are weak or reduced against the parent protein; the word gives no strength. For some assays here: Where a sequence is shown, tags or fusion partners need not be part of it.

Amino acid sequences for entries named in this document (tags omitted). A change or cut given only in a name is not applied to a line headed by its entry. Residues count along the entry.
UniProt Q9QZH4: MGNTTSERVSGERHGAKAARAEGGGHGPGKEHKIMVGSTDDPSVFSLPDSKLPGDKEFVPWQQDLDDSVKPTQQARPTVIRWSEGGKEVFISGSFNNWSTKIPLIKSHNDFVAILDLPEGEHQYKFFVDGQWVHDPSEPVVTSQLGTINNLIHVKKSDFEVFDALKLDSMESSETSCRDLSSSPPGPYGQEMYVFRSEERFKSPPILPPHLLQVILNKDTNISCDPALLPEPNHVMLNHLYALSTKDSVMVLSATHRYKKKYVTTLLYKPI
N-terminal domain of AMPK β2-subunit (Δβ2, amino acids 1–54), Split-Trp-Y2H fusion: residues 1-54 of Q9QZH4
UniProt P04906: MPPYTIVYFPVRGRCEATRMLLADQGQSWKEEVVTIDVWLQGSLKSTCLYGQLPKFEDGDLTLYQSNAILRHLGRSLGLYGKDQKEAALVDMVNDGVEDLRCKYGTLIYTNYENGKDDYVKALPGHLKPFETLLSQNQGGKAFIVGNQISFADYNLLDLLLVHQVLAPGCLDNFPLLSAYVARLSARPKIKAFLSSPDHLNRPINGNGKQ

B1: rat GSTM1, Cyto-Y2H fusion (enzyme, UniProt P04905 1-218)
chain: MPMILGYWNVRGLTHPIRLLLEYTDSSYEEKRYAMGDAPDYDRSQWLNEKFKLGLDFPNLPYLIDGSRKITQSNAIMRYLARKHHLCGETEEERIRADIVENQVMDNRMQLIMLCYNPDFEKQKPEFLKTIPEKMKLYSEFLGKRPWFAGDKVTYVDFLAYDILDQYHIFEPKCLDAFPNLKDFLARFEGLKKISAYMKSSRYLSTPIFSKLAQWSNK
B2: rat GSTM1, Split-Trp-Y2H fusion (enzyme, UniProt P04905 1-218)
chain: B1 chain

Legend:
[1] = target: AMPK β2-subunit, Cyto-Y2H fusion (rat) (UniProt Q9QZH4); assay: two-hybrid; Cyto-Y2H with GST-Sj in the other orientation (bait instead of prey or the reverse); data not shown
[2] = target: N-terminal domain of AMPK β2-subunit (Δβ2, amino acids 1–54), Cyto-Y2H fusion (rat) (UniProt Q9QZH4); assay: as above
[3] = target: AMPK β2-subunit, Cyto-Y2H fusion (rat) (UniProt Q9QZH4); assay: two-hybrid; Cyto-Y2H (split ubiquitin, cytosolic, transcriptional read-out); growth on SD-AHWL, 72 h at 30°C; Figure 2A
[4] = target: N-terminal domain of AMPK β2-subunit (Δβ2, amino acids 1–54), Cyto-Y2H fusion (rat) (UniProt Q9QZH4); assay: as above
[5] = target: N-terminal domain of AMPK β2-subunit (Δβ2, amino acids 1–54), Split-Trp-Y2H fusion (rat) (UniProt Q9QZH4); assay: two-hybrid; Split-Trp-Y2H (reconstitution of Trp1p); growth on SD-UWL, up to 9 days at 27°C; Figure 2B
[6] = target: AMPK β2-subunit, Split-Trp-Y2H fusion (rat) (UniProt Q9QZH4); assay: as above
[7] = target: N-terminal domain of AMPK β2-subunit (Δβ2, amino acids 1–54), Split-Trp-Y2H fusion (rat) (UniProt Q9QZH4); assay: two-hybrid; Split-Trp-Y2H with GST-Sj in the other orientation (bait instead of prey or the reverse); data not shown
[8] = target: AMPK β2-subunit, Split-Trp-Y2H fusion (rat) (UniProt Q9QZH4); assay: as above
[9] = target: Large T Antigen of Simian Virus (amino acids 84–704), Cyto-Y2H fusion (Simian Virus) (UniProt P03070); assay: two-hybrid; Cyto-Y2H (split ubiquitin, cytosolic, transcriptional read-out); growth on SD-AHWL, 72 h at 30°C; Figure 2A
[10] = target: Large T Antigen of Simian Virus (amino acids 84–704), Split-Trp-Y2H fusion (Simian Virus) (UniProt P03070); assay: two-hybrid; Split-Trp-Y2H (reconstitution of Trp1p); growth on SD-UWL, up to 9 days at 27°C; Figure 2B

Molecule	binding [3]	binding [4]	binding [5]	binding [6]	binding [9]	binding [10]	further results
GST-Sj, Cyto-Y2H fusion (from UniProt P08515 1-218) (enzyme)	binds	binds	–	–	–	–	binding [1]: binds; binding [2]: binds
GST-Sj, Split-Trp-Y2H fusion (from UniProt P08515 1-218) (enzyme)	–	–	binds	binds	–	–	binding [7]: binds; binding [8]: binds
rat GSTP1, Cyto-Y2H fusion (from UniProt P04906 1-210) (enzyme)	binds	binds	–	–	no binding	–	–
rat GSTP1, Split-Trp-Y2H fusion (from UniProt P04906 1-210) (enzyme)	–	–	binds	binds	–	no binding	–
B1	binds	binds	–	–	no binding	–	–
B2	–	–	binds	binds	–	no binding	–
